# From article PMC4336329 (PLoS ONE, 2015)
# About 14,000 (4.5%) of roughly 310,000 compounds showed an effect of 50% or more. The effect is printed as a negative number. This is one part of the list.
# Biological target: human ether-à-go-go-related gene (hERG) potassium channel (human, UniProt Q12809)
# Assay: primary screen, population patch clamp on CHO cells stably expressing hERG
# 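Further: peak tail current of the secondary pulse compared with the same well before compound.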
# human ether-à-go-go-related gene (hERG) potassium channel, sequence (Q12809 whole entry, looked up): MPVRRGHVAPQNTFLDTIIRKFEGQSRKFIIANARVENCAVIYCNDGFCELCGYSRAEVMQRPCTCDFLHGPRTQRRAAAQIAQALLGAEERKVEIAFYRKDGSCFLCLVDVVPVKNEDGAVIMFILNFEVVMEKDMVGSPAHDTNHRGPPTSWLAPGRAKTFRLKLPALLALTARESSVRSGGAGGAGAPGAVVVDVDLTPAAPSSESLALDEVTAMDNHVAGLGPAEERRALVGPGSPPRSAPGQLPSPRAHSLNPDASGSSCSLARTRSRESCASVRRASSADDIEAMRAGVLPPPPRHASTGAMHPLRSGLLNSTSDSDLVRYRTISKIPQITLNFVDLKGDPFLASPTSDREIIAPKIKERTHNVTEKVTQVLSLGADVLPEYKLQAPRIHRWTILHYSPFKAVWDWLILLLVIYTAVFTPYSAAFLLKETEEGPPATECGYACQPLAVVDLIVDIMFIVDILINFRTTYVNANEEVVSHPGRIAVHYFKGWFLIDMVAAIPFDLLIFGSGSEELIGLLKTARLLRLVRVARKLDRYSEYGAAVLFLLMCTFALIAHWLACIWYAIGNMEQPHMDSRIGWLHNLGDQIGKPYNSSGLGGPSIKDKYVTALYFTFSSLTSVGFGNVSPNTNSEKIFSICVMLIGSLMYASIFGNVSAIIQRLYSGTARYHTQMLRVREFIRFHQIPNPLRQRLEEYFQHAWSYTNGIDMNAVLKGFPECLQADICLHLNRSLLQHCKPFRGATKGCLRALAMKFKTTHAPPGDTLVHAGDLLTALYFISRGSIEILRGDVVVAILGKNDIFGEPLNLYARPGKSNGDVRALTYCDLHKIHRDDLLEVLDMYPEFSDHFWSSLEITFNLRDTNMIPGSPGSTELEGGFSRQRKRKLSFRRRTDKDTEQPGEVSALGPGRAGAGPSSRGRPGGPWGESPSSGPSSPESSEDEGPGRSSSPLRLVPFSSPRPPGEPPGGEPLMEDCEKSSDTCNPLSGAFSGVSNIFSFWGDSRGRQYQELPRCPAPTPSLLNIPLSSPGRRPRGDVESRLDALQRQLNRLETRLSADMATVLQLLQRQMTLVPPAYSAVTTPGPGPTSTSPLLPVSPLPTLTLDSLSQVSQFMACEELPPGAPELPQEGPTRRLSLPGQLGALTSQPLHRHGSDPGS
row,SMILES,"hERG current change (%, negative = inhibition) at 10uM [%]"
1,Cc1ccccc1Cn1ccc(NC(=O)c2cc3nc(-c4ccco4)cc(C(F)(F)F)n3n2)n1,14.7
2,CCOC(=O)C1(CCOc2ccccc2)CCN(Cc2cccc(OCCO)c2)CC1,-83.4
3,CCn1cc([N+](=O)[O-])c(C(=O)N2N=C(c3ccccc3)CC2c2ccc([N+](=O)[O-])cc2)n1 (stereo not shown),-37.2
4,Cc1cccc(-n2nnc(C(=O)NCc3ccco3)c2N)c1,-10.2
5,CCOc1ccc(Cl)cc1CNCCCSc1nc(C)cc(C)n1.Cl,-59.6
6,O=C(Nc1ccc2c(c1)OCO2)c1cnn2cccnc12,8.03
7,O=[N+]([O-])c1ccc(N2CCCC2)nc1,-0.605
8,COc1cc(Cl)c(C)cc1NC(=O)CN1CCN(C(=O)C2CC2)CC1,-59.6
9,COc1ccc(CN2CSC(=S)N(Cc3ccccc3)C2)cc1,-8.05
10,C/C(=C\C(=O)c1ccc(Br)cc1)NCc1ccccc1,-3.83
11,COCc1cccc(C2=CC(=O)C[C@H](c3ccc(OC)cc3)C2)c1,-20.7
12,COc1ccc(NC(C)=O)cc1S(=O)(=O)Nc1ccccc1C(=O)NCCc1ccccc1,8.95
13,C=CCN(c1ccccc1Cl)S(=O)(=O)c1cc(C(=O)N2CCCC2)ccc1Cl,-46.4
14,O=C(O)c1ccc(NC(=O)c2ccccc2NC(=O)c2cccc(F)c2)cc1,20.2
15,CCc1ccc(C2C(=O)c3ccccc3C2=O)cc1,-3.18
16,CCOC(=O)CSCC(NC(=O)OC(C)(C)C)C(=O)OCC (stereo not shown),4.53
17,O=C(CCc1nc(-c2ccccc2)no1)NC1CCCCC1,-2.68
18,COc1ccc(CN2CCCC(C(=O)c3ccc(Cl)cc3)C2)cc1Cn1cncn1 (stereo not shown),-78
19,Cc1ccc(S(=O)(=O)NCCCC(=O)C=[N+]=[N-])cc1,3.51
20,CC1CCc2sc(NC(=S)NC(=O)c3ccccc3)c(C#N)c2C1 (stereo not shown),6.48
21,Cn1c(=O)n(C)c2cc(NS(=O)(=O)c3ccc(C(C)(C)C)cc3)ccc21,-6.6
22,CCOC(=O)c1ccn(CSc2c(F)c(F)cc(F)c2F)n1,-3.79
23,Nc1ccccc1OCCOc1ccccc1N,6.9

row,SMILES,"hERG current change (%, negative = inhibition) at 10uM [%]"
1,COC(=O)Cc1c(C)c2ccc(OCC(=O)N3CCC(C)CC3)c(C)c2oc1=O,-31.8
2,CCCc1ncc(C(O)(c2ccccc2)c2ccc(C)cc2)n1C (stereo not shown),-8.7
3,NC(=O)C1CCN(C(=O)CN(c2cccc(Cl)c2)S(=O)(=O)c2ccccc2)CC1,4.96
4,CCN(CC)C(=O)c1cc2c(=O)n3cccc(C)c3nc2s1,15.5
5,CCOC(=O)Cn1cc([N+](=O)[O-])c(OC)n1,26.2
6,CCCNC(=O)c1onc(CSc2ccc(F)cc2)c1C(=O)NCC1CC1,-62.7
7,O=C(c1ccc(N2CCCCC2)c([N+](=O)[O-])c1)N1CCN(S(=O)(=O)c2ccccc2)CC1,-49.9
8,CN(CC(=O)Nc1ccccc1Cl)C(=O)COC(=O)c1ccccc1[N+](=O)[O-],-6.07
9,CCN(CC)CCn1c(=S)[nH]c2ccccc2c1=O,-25.6
10,Cc1nc2cc(-c3ccccc3)ccc2o1,-8.71
11,C=CCNC(=O)c1ccccc1NC(=O)c1cccc2ccccc12,-23.7
12,Cc1ccccc1/C=C/c1cccc[n+]1C.[I-],19
13,O=C(COC(=O)CCNS(=O)(=O)c1ccccc1F)Nc1nnc(-c2ccccc2)o1,7.41
14,Cc1cc(N2CCCCC2)nc2ccc(NC(=O)c3ccc(Br)o3)cc12,-52.9
15,CCOC(=O)C1(Cc2ccccc2C)CCCN(C(=O)c2ccoc2)C1 (stereo not shown),-4.49
16,O=C(NC(=S)Nc1cc(C(F)(F)F)ccc1N1CCOCC1)c1sc2ccccc2c1Cl,2.18
17,Fc1ccc(Nc2cccc3nccnc23)cc1,-26.5
18,CCN(c1ccc(OC)cc1)S(=O)(=O)N1CCCC(C(=O)NCc2cccc(C)c2)C1 (stereo not shown),-26.5
19,Cc1nc2ccccc2nc1N1CCCC1,-4.79
20,COc1ccc(CNc2ccc(Br)cc2)cc1,10
21,Cc1ccccc1-n1ccnc1SCC(=O)NCc1ccco1,1.87
22,Cc1ccc(NC(=O)CN(C(=O)N2CCN(C)CC2)S(=O)(=O)c2ccc(C)cc2)cc1,-25.7
23,CCn1cc(C(=O)Nc2ccc(NC(=O)c3ccco3)cc2)c(=O)c2ccc(C)nc21,-4.71

row,SMILES,"hERG current change (%, negative = inhibition) at 10uM [%]"
1,COc1ccc(NC(=O)N2CC(C)OC(C)C2)cc1OC (stereo not shown),-0.483
2,COc1ccccc1C(=O)OCCNC(=O)Cn1cnc2c1c(=O)n(C)c(=O)n2C,25.7
3,CCOc1ccc(NC(=O)c2csc3c2CCCC3)cc1,3.72
4,CCc1nc(NCCN)c(C#N)c2c1CSC(C)(C)C2,-18.9
5,CCCCOc1ccc(/C=N/NC(=O)C2CCCNC2=O)cc1 (stereo not shown),-9.28
6,Cc1cnc(NCCc2ccccc2)s1,1.74
7,O=C(CN1C(=O)NC2(CCCC2)C1=O)Nc1ccccc1N1CCCCC1,5.4
8,O=c1cc(CSc2nc3cc(Cl)ccc3o2)nc2sccn12,10.4
9,CN(C)C(=O)N=NC(=O)N(C)C,5.58
10,O=c1cc(C23CC4CC(CC(C4)C2)C3)[nH][nH]1,-5.43
11,COCCNCCCCOc1ccc(C)cc1[N+](=O)[O-].O=C(O)C(=O)O,-11.5
12,O=[N+]([O-])c1ccc(N2CCOCC2)cc1N1CCCCC1,-5.12
13,CC(C)N(C(=O)CN1CCC(c2nc3ccccc3[nH]2)CC1)C(C)C,-4.13
14,Cc1nnc(SCc2cc(=O)oc3cc(O)ccc23)n1Cc1ccccc1,-10.2
15,CCOC(=O)Cc1csc(NC(=S)NC(=O)c2cc(OC)cc(OC)c2)n1,-1.92
16,CCCC1=NN(C(=O)Cc2ccc([N+](=O)[O-])cc2)C(O)(C(F)(F)F)C1 (stereo not shown),7.2
17,COc1cc(OC)c(C(=O)O/N=C(\N)c2ccc(C)cc2)cc1OC,-12.2
18,COCCCN1CN(S(=O)(=O)c2ccc(C)cc2C)c2nc3ccccc3nc21,-15.9
19,O=C(CCC(=O)c1ccc(Br)cc1)Nc1cccc(C(F)(F)F)c1,6.69
20,CN1CCN(C(=O)CCc2nc(-c3ccc(Cl)cc3)no2)CC1,-6.62
21,COc1ccc(-c2nn3c(-c4ccccn4)nnc3s2)cc1OC,10.6
22,C=CCn1cccc(C(=O)Nc2ccc(C)cc2)c1=O,-7.96
23,C/C(=C\C(=O)c1ccccc1)Nc1ccc(O)cc1,8.32

row,SMILES,"hERG current change (%, negative = inhibition) at 10uM [%]"
1,Cc1cccc(Nc2ncnc3ccccc23)c1.Cl,-5.93
2,O=C(CN1C(=O)NC2(CCCC2)C1=O)N1CCN(C(=O)c2ccco2)CC1,4.41
3,c1ccc2c(CN3CCOCC3)c3ccccc3c(CN3CCOCC3)c2c1,15.3
4,COc1ccc(C(=O)COC(=O)c2ccccn2)cc1OC,-1.03
5,CCOc1ccc(S(=O)(=O)N2CCOCC2)cc1NC(=O)Cc1c(F)cccc1Cl,9.66
6,COc1ccc(-c2cc(C(=O)N(C)Cc3ccc(F)cc3)c3ccccc3n2)cc1OC,5.63
7,OCC#CCSc1nnc(-c2ccc(Br)cc2)o1,-17.2
8,CCCNC(=O)Cc1c(C)oc2ccccc12,5.39
9,CCCCc1cc(=O)oc2cc(C)cc(OCc3nn[nH]n3)c12,-14.8
10,COc1ccc(-c2nc(C(F)(F)F)c(OC)o2)cc1OC,3.39
11,On1nnc2ccc(C(F)(F)F)cc21,33.7
12,CC(=O)Nc1ccc(NC(=O)C(C)OC(=O)c2ccc(N(C)C)cc2)cc1 (stereo not shown),7.41
13,CCOC(=O)c1ccc(NC(=O)/C=C/c2cccs2)cc1,-5.15
14,O=C(Nc1ccccc1-c1ccccc1)C1CCC1,13
15,Cc1cc(N2CCN(C)CC2)nc(=S)[nH]1,15.3
16,CN(C)N(C(=O)c1cc(-c2cccs2)nn1-c1ccccc1)C1CCS(=O)(=O)C1 (stereo not shown),0.00128
17,Cn1c(N)c(C(c2ccccc2)c2c(N)n(C)c(=O)n(C)c2=O)c(=O)n(C)c1=O,2.52
18,COc1ccc(N2CCN(Cc3cc(=O)oc4cc(-c5ccccc5)c(O)cc34)CC2)cc1,-0.18
19,Cc1ccc(-c2nc3ccccc3[nH]2)cn1,14.9
20,O=C(Nc1ccc2oc(-c3ccccc3Cl)nc2c1)c1cncc(Br)c1,-8.01
21,Cn1cc(CCC(=O)N2CCCC(C(=O)c3ccc(C(C)(C)C)cc3)C2)cn1 (stereo not shown),-37.8
22,O=C(c1c[nH]c2ccc(S(=O)(=O)N3CCC4(CC3)OCCO4)cc2c1=O)N1CCC2(CC1)OCCO2,4.7
